Measured values: the supplement of paper PMC4967469
The IC50 comes from the fitted curve, where viability falls to half of the control; where the fit passes the top or lowest dose, that dose stands as a limit. For AUC the same curve is integrated over the 256-fold range of doses and scaled to a fraction; it is 1 without any effect and falls as sensitivity rises. For part of these data: A top dose marked as inferred was derived from the fitted curves, not read from the paper. For part of these data: Where an entry number is given, a second screen of the drug exists; the two often differ.

Assays:
Assay in all cases: Viability of human cancer cell lines after 72 h of drug (GDSC screen)
AUY922 = compound: CCNC(=O)c1noc(-c2cc(C(C)C)c(O)cc2O)c1-c1ccc(CN2CCOCC2)cc1 [AUY922]; conditions: top dose 0.256 µM; top dose inferred
Description: (§1)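 Human cancer cell lines in 384-well plates, medium with 10% serum, drug for 72 h over a 256-fold dose range (nine 2-fold or five 4-fold steps up to the top dose). Adherent lines were fixed and stained with the nucleic acid dye Syto60, suspension lines read with resazurin; signal relative to control wells, capped at 0 and 100%. One two-parameter sigmoid per drug and line, fitted in a mixed model over all curves with the slope shared within a line.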

TW-37 = compound: CC(C)c1ccccc1Cc1cc(C(=O)Nc2ccc(S(=O)(=O)c3ccccc3C(C)(C)C)cc2)c(O)c(O)c1O [TW-37]; conditions: top dose 5 µM
Description: as §1

KIN001-270 = compound: Cc1ccc(Nc2cc(-c3cccc(N4C(=O)c5ccccc5C4=O)c3)ncn2)cc1NS(C)(=O)=O [KIN001-270]; conditions: top dose 20 µM; top dose inferred
Description: as §1

MP470 = compound: S=C(NCc1ccc2c(c1)OCO2)N1CCN(c2ncnc3c2oc2ccccc23)CC1 [MP470]; conditions: top dose 20 µM; top dose inferred
Description: as §1

T0901317 = compound: O=S(=O)(c1ccccc1)N(CC(F)(F)F)c1ccc(C(O)(C(F)(F)F)C(F)(F)F)cc1 [T0901317]; conditions: top dose 10.24 µM; top dose inferred
Description: as §1

Gemcitabine = compound: Nc1ccn([C@@H]2O[C@H](CO)[C@@H](O)C2(F)F)c(=O)n1 [Gemcitabine]; conditions: top dose 1.024 µM
Description: as §1

LFM-A13 = compound: C/C(O)=C(\C#N)C(=O)Nc1cc(Br)ccc1Br [LFM-A13]; conditions: top dose 16 µM; top dose inferred
Description: as §1

Bicalutamide = compound: CC(O)(CS(=O)(=O)c1ccc(F)cc1)C(=O)Nc1ccc(C#N)c(C(F)(F)F)c1 [Bicalutamide]; conditions: top dose inferred
Description: as §1

[1] = top dose 1.024 µM, screen: GDSC drug entry 150
[2] = top dose 10 µM, screen: GDSC drug entry 1502

Cell Line | AUC (AUY922) | IC50 (AUY922) | AUC (TW-37) | IC50 (TW-37) | AUC (KIN001-270) | IC50 (KIN001-270) | AUC (MP470) | IC50 (MP470) | AUC (T0901317) | IC50 (T0901317) | AUC (Gemcitabine) | IC50 (Gemcitabine) | AUC (LFM-A13) | IC50 (LFM-A13) | AUC (Bicalutamide; [1]) | IC50 (Bicalutamide; [1]) | AUC (Bicalutamide; [2]) | IC50 (Bicalutamide; [2])
NCI-H661 (large cell lung carcinoma, adherent) | 0.694 | 63.6 nM | 0.466 | 247 nM | 0.968 | > 20 µM | 0.825 | 15.6 µM | 0.954 | > 10.2 µM | 0.312 | 17 nM | 0.978 | > 16 µM | 0.981 | > 1020 nM | 0.963 | > 10000 nM
NCI-H358 (lung adenocarcinoma, adherent) | 0.56 | 23.7 nM | 0.699 | 1210 nM | 0.962 | > 20 µM | 0.915 | > 20 µM | 0.982 | > 10.2 µM | 0.318 | 18.6 nM | 0.981 | > 16 µM | 0.983 | > 1020 nM | 0.979 | > 10000 nM
OVCAR-8 (ovary, adherent) | 0.539 | 20.2 nM | 0.51 | 332 nM | 0.952 | > 20 µM | 0.978 | > 20 µM | 0.984 | > 10.2 µM | 0.157 | 6.68 nM | 0.986 | > 16 µM | 0.99 | > 1020 nM | 0.989 | > 10000 nM
PCI-4B (head and neck, adherent) | 0.44 | 11.1 nM | 0.39 | 158 nM | 0.97 | > 20 µM | 0.959 | > 20 µM | 0.983 | > 10.2 µM | 0.039 | < 4 nM | 0.984 | > 16 µM | 0.987 | > 1020 nM | 0.981 | > 10000 nM
A2058 (melanoma, adherent) | 0.476 | 13.9 nM | 0.379 | 151 nM | 0.983 | > 20 µM | 0.97 | > 20 µM | 0.971 | > 10.2 µM | 0.273 | 15.8 nM | 0.987 | > 16 µM | 0.99 | > 1020 nM | – | –
HPAF-II (pancreas, adherent) | 0.843 | > 256 nM | 0.482 | 276 nM | 0.981 | > 20 µM | 0.823 | 16.9 µM | 0.954 | > 10.2 µM | 0.663 | 210 nM | 0.936 | > 16 µM | 0.979 | > 1020 nM | 0.978 | > 10000 nM
PANC-10-05 (pancreas, adherent) | 0.447 | 11 nM | 0.68 | 1160 nM | 0.975 | > 20 µM | 0.953 | > 20 µM | 0.98 | > 10.2 µM | 0.35 | 21.7 nM | 0.956 | > 16 µM | 0.982 | > 1020 nM | 0.962 | > 10000 nM
LU-99A (large cell lung carcinoma, adherent) | 0.622 | 34.6 nM | 0.46 | 243 nM | 0.983 | > 20 µM | 0.939 | > 20 µM | 0.98 | > 10.2 µM | 0.884 | > 1020 nM | 0.975 | > 16 µM | 0.987 | > 1020 nM | 0.978 | > 10000 nM
KOSC-2 (head and neck, adherent) | 0.667 | 47.8 nM | 0.555 | 445 nM | 0.985 | > 20 µM | 0.985 | > 20 µM | 0.985 | > 10.2 µM | 0.904 | > 1020 nM | 0.971 | > 16 µM | 0.985 | > 1020 nM | 0.905 | > 10000 nM
HPAC (pancreas, adherent) | 0.794 | 177 nM | 0.884 | > 5000 nM | 0.979 | > 20 µM | 0.857 | > 20 µM | 0.979 | > 10.2 µM | 0.274 | 11 nM | 0.979 | > 16 µM | 0.979 | > 1020 nM | – | –
LC-1-sq (lung squamous cell carcinoma, adherent) | 0.944 | > 256 nM | 0.858 | > 5000 nM | 0.985 | > 20 µM | 0.947 | > 20 µM | 0.971 | > 10.2 µM | 0.739 | 353 nM | 0.984 | > 16 µM | 0.982 | > 1020 nM | 0.983 | > 10000 nM
NCI-H1299 (large cell lung carcinoma, adherent) | 0.413 | 8.75 nM | 0.514 | 345 nM | 0.979 | > 20 µM | 0.982 | > 20 µM | 0.98 | > 10.2 µM | 0.156 | 4.12 nM | 0.932 | > 16 µM | 0.983 | > 1020 nM | 0.9 | > 10000 nM
EPLC-272H (lung squamous cell carcinoma, adherent) | 0.633 | 39.1 nM | 0.633 | 767 nM | 0.944 | > 20 µM | 0.833 | 15.3 µM | 0.982 | > 10.2 µM | 0.306 | 16.8 nM | 0.967 | > 16 µM | 0.976 | > 1020 nM | 0.975 | > 10000 nM
NCI-H2405 (lung adenocarcinoma, adherent) | 0.485 | 14.5 nM | 0.603 | 618 nM | 0.98 | > 20 µM | 0.959 | > 20 µM | 0.985 | > 10.2 µM | 0.343 | 22.3 nM | 0.97 | > 16 µM | 0.984 | > 1020 nM | 0.969 | > 10000 nM
H2804 (mesothelioma, adherent) | 0.669 | 49.6 nM | 0.646 | 825 nM | 0.982 | > 20 µM | 0.904 | > 20 µM | 0.985 | > 10.2 µM | 0.485 | 57.9 nM | 0.971 | > 16 µM | 0.981 | > 1020 nM | – | –
